Test results from PubChem BioAssay AID652104 (National Center for Advancing Translational Sciences (NCATS), 2013).
Out of some 410,000 compounds screened, about 7,200 (1.8%) were called active. The shares of active, inactive and inconclusive entries below differ from those in the screen. Calls come from the whole dose curve; as a rule, active = well fitted activation curve with a large enough effect; inconclusive = small, poorly fitted or top-dose-only effect, or another doubt; inactive = no such curve, though single readings can be large or run the other way. No potency is given beside an inconclusive call; the fits are too rough.
Potency is the fitted concentration of half-maximal effect; tags give direction and shape of the fitted curve.

Test: qHTS of TDP-43 Inhibitors; note: nearly all actives have a fitted effect of over 50% in size; for growth rescue (activation): % of control where 0% means no effect
Conditions: TDP-43 expressing yeast growth rescue, BacTiter-Glo, 24 h; growth rescue (activation): at 46.1 µM (top of the series) unless noted
In short: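 Galactose-induced TDP-43 yeast, OD600=0.02, compound pinned; 24 hr, 30 deg C; BacTiter-Glo luminescence for growth. Inhibitors of TDP-43 toxicity read as activators.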
In the case of `Cc1cc(C(=O)Nc2ccccc2Cl)c2ccccc2n1`, the Potency is reported as inconclusive [activator, partial curve, poor fit]. In the case of `CCOc1ccc(N2C(=O)/C(=C\c3ccccc3OC)S(=O)(=O)C2c2cccc([N+](=O)[O-])c2)cc1` (stereo unspecified), the Potency is reported as active: 11.2 µM. With `O=S(=O)(NCCCc1ccccc1)c1ccc(F)c(F)c1` the Potency was inconclusive [activator, single point]. With `COc1cccc(CNC(=O)C(=O)NCC(c2cccs2)S(=O)(=O)c2cccs2)c1` (stereo unspecified) the Potency was “inactive”. With `CC1CC(C)CN(C(=O)c2ccc3c(c2NCCO)C(=O)c2ccccc2C3=O)C1` (stereo unspecified) the Potency was active: 17.8 µM. In the case of `COc1cccc(OCc2nc3ccccc3n2Cc2ccccc2)c1`, the Potency is reported as active: 22.4 µM. In the case of `N#C/C(=C/c1cccc(O)c1)C(=O)NCc1ccc(Cl)cc1`, the Potency is reported as inconclusive [activator, full curve, poor fit]. In the case of `CCn1c(Oc2ccc(F)cc2F)nc2c1c(=O)n(C)c(=O)n2C`, the Potency is reported as inconclusive [activator, partial curve]. For `CC(NC(=O)c1cc2cc([N+](=O)[O-])ccc2oc1=O)C1CCCO1` (stereo unspecified), the Potency was inconclusive [activator, single point]. For `CCc1cc2c(cc3c(=O)n(CC(=O)NCc4cccc(Cl)c4)nc(CC)n32)s1`, the Potency was “inactive”. With `Cc1cc(Nc2ccc(F)cc2)n2nc(C)nc2n1` the Potency was inconclusive [activator, single point]. For `CCCCOc1ccc(C(=O)NCC2(c3ccccc3)CCOCC2)cc1`, the Potency was active: 15.8 µM. In the case of `Cc1cc(C)c2c(=O)n(CC(=O)Nc3ccc(Cl)cc3)sc2n1`, the growth rescue (activation) is reported as inconclusive: -91% [activator]. For `O=C(Nc1nc(-c2ccc(Cl)cc2Cl)cs1)C1CCCO1` (stereo unspecified), the Potency was active: 12.6 µM. In the case of `CC(=O)NC(c1ccc(F)c(F)c1)c1nc(-c2cccc(C(C)C)c2)cs1` (stereo unspecified), the Potency is reported as inconclusive [activator, partial curve]. In the case of `CCOc1ccc(OCC)c(NS(=O)(=O)c2cccc3nsnc23)c1`, the Potency is reported as active: 12.6 µM. With `CC1CC(C)(C)N(C(=O)NC2CCCCC2)c2ccccc21` (stereo unspecified) the Potency was active: 14.1 µM. With `CC(C)(C)OC(=O)CC[C@@H](C(=O)N1CCN(C(=O)OC(C)(C)C)CC1)n1cc(C(Cc2ccc(O)cc2)NC(=O)OC(C)(C)C)nn1` (stereo partly specified) the Potency was inconclusive [activator, partial curve]. For `COc1ccc(CN2C(=O)CCC2(C)c2nnnn2-c2c(C)cccc2C)cc1` (stereo unspecified), the Potency was inconclusive [activator, partial curve, poor fit]. In the case of `C1=C(CCNc2nnnn2-c2ccccc2)CCCC1`, the Potency is reported as inconclusive [activator, partial curve]. For `CCOc1ccc(-n2cc(-c3ccccc3)c3c(=O)[nH]cnc32)cc1`, the Potency was inconclusive [activator, single point]. In the case of `N#C/C(=C\c1ccccc1)C(=O)N(c1ccccn1)C1CCCCC1`, the Potency is reported as inconclusive [activator, partial curve]. With `COc1ccc(-c2nc3cc([N+](=O)[O-])ccc3o2)cc1OC` the Potency was inconclusive [activator, partial curve]. In the case of `CC(SC1=NCCN1S(=O)(=O)c1ccc(F)cc1)c1ccccc1` (stereo unspecified), the Potency is reported as inconclusive [activator, partial curve]. For `O=C(CN1CCOCC1)NN=Cc1ccc([N+](=O)[O-])o1`, the Potency was inconclusive [activator, single point]. For `O=C1OC(c2ccccc2)c2ccc3ccccc3c21` (stereo unspecified), the Potency was inconclusive [activator, partial curve, poor fit]. For `COc1ccccc1NC(=S)NC(=O)CCc1ccccc1`, the Potency was inconclusive [activator, single point]. For `COc1ccc(S(=O)(=O)N2CCC(C(=O)Nc3ccc(Oc4ccccc4)cc3)CC2)cc1OC`, the Potency was “inactive”. In the case of `Cc1ccc(N2CC(C(=O)Nc3nnc(C(C)C)s3)CC2=O)cc1` (stereo unspecified), the Potency is reported as inconclusive [activator, full curve, poor fit]. In the case of `COC(=O)c1ccccc1NC(=S)N1CCN(c2ccccc2)CC1`, the Potency is reported as inconclusive [activator, partial curve]. In the case of `COc1ccc2sc(NC(=O)CC(C)C)nc2c1`, the Potency is reported as inconclusive [activator, partial curve]. For `O=C(CSc1nc2c(c(=O)[nH]1)CN(Cc1ccc3c(c1)OCO3)CC2)Nc1cc(F)ccc1F`, the Potency was “inactive”. In the case of `COc1cc(C(=O)O)cc(Br)c1OC1CCCC1`, the Potency is reported as inconclusive [activator, single point]. For `CCNC(=S)N1CCN(c2cccc(C(F)(F)F)c2)CC1`, the Potency was inconclusive [activator, partial curve]. For `Cc1ccccc1OCC(=O)Nc1ccc(OCc2cc(=O)n3ccccc3n2)cc1`, the Potency was “inactive”. With `C=CCn1c(O)c(N=Nc2ccccc2[N+](=O)[O-])c2ccccc21` the Potency was inconclusive [activator, partial curve, poor fit]. With `COc1cc(OC)cc(-c2cc3nc4c(c(N5CCN(c6ncccn6)CC5)n3n2)CCCC4)c1` the Potency was inconclusive [activator, partial curve]. In the case of `COC(=O)Cn1c(=NC(=O)c2cccc(OC)c2)sc2cc(OC)ccc21`, the Potency is reported as “inactive”. In the case of `O=C(CN1CCOCC1)Nc1nc(-c2ccccc2)cs1`, the Potency is reported as “inactive”. For `CCCn1c2ccccc2c2cnn(CC(=O)Nc3ccccc3OC)c(=O)c21`, the Potency was inconclusive [activator, single point]. For `CCOC(=O)c1sc(NC(=O)Nc2cccc(Cl)c2)cc1C`, the Potency was “inactive”. In the case of `OC[C@H]1O[C@@H](Oc2ccc(O)cc2)[C@H](O)[C@@H](O)[C@@H]1O`, the Potency is reported as “inactive”. With `Cc1cccc(NC(c2cccc(Cl)c2)c2ccc3cccnc3c2O)n1` (stereo unspecified) the Potency was “inactive”. With `COc1ccccc1-c1ccc(/C=N/O)o1` the Potency was inconclusive [activator, partial curve]. In the case of `O=C(Oc1ccc(Br)cc1)c1cccc(S(=O)(=O)N2CCOCC2)c1`, the Potency is reported as inconclusive [activator, single point]. In the case of `CC1C(=O)N(Cc2cn(Cc3ccco3)nn2)CCS(=O)(=O)N1Cc1ccc(-c2ccc(F)cc2Cl)cc1` (stereo unspecified), the Potency is reported as inconclusive [activator, partial curve]. In the case of `Cc1ccnc(Nc2nc(-c3sc(C)nc3C)cs2)c1`, the Potency is reported as inconclusive [activator, single point]. With `O=C(O)c1ccc(CSC2CCCCC2)cc1` the Potency was inconclusive [activator, single point]. In the case of `COc1ccc(NC(=O)C(c2ccc(OC)cc2)N(C)C(=O)Cc2cccs2)cc1` (stereo unspecified), the Potency is reported as inconclusive [activator, partial curve]. For `CSc1ccccc1NC(=O)c1ccoc1C`, the Potency was inconclusive [activator, single point]. In the case of `CC1CCCN(S(=O)(=O)c2cccc([N+](=O)[O-])c2)C1` (stereo unspecified), the Potency is reported as inconclusive [activator, partial curve]. In the case of `Cn1ccc2cc(S(=O)(=O)N3CCN(C(=O)Nc4cccc(F)c4)CC3)ccc21`, the Potency is reported as inconclusive [activator, partial curve]. With `Cc1[nH]n(C(N)=S)c(=O)c1N=Nc1ccc2ccccc2c1` the Potency was inconclusive [activator, partial curve]. In the case of `Cc1cc(Nc2ncc(Cl)cc2Cl)n(-c2ccccc2)n1`, the Potency is reported as active: 7.08 µM. For `Cc1ccc(C(=O)COC(=O)c2cccc([N+](=O)[O-])c2)s1`, the Potency was inconclusive [activator, partial curve]. In the case of `Cc1ccc(C2OC(=O)c3ccccc32)cc1` (stereo unspecified), the Potency is reported as active: 35.5 µM. With `CC(=O)N1CCc2cc(CNS(=O)(=O)c3cccs3)ccc21` the Potency was “inactive”. In the case of `COc1ccc(NC(=O)CSc2nc(-c3ccccc3)cc(-c3cc(OC)c(OC)c(OC)c3)c2C#N)c(OC)c1`, the Potency is reported as “inactive”. In the case of `O=C(CSc1nc(=O)n(Cc2ccncc2)c2c1CCC2)Nc1ccccc1`, the Potency is reported as “inactive”. With `Cc1ccccc1C(=O)Nc1cccc(-c2nc3cccnc3s2)c1` the Potency was inconclusive [activator, partial curve]. For `COc1ccc2nc(N/C(N)=N/C(=S)Nc3ccccc3)nc(C)c2c1`, the Potency was inconclusive [activator, single point]. With `Cc1c2n(c3ccccc13)CC/C2=N\O` the Potency was active: 11.2 µM. In the case of `Cc1ccccc1NC(=O)c1sc(Cl)nc1C`, the Potency is reported as inconclusive [activator, partial curve]. For `CC(C)(C)c1cnnn1-c1ccc(C(=O)CCl)cc1`, the Potency was active: 8.91 µM. For `COCCCNC(=S)N1CCN(c2nc(C)nc3sc4c(c23)CCCC4)CC1`, the Potency was inconclusive [activator, single point]. With `CSc1ccc(NC(=O)Nc2cc(C)ccn2)cc1` the Potency was inconclusive [activator, single point]. For `CCN1C(=O)[C@H]2[C@@H](c3ccc(-c4ccc(Cl)c(Cl)c4)cc3)N[C@@](CC(C)C)(C(=O)OC)[C@H]2C1=O`, the Potency was “inactive”. In the case of `O=C(O)C/C(=C\c1cc(Br)cs1)c1nc2ccccc2o1`, the growth rescue (activation) is reported as inconclusive: -66.6% [activator]. In the case of `COc1ccc(CCNC(=O)c2cc3cccc4c3n2CC(C)S4)c(OC)c1OC` (stereo unspecified), the Potency is reported as inconclusive [activator, partial curve]. In the case of `Cc1nc2c3cc(Cl)ccc3n(CCN3CCOCC3)c2s1`, the Potency is reported as inconclusive [activator, single point]. In the case of `COc1ccc(CNC(=O)O[C@H]2CN(C(=O)OC(C)C)N(C(=O)OC(C)C)[C@@H]3CN(S(=O)(=O)c4ccc(C)cc4)C[C@]23O)cc1OC`, the Potency is reported as inconclusive [activator, single point].
